Assay results published in the RNAGym collection of RNA variant scans (doi:10.7554/elife.90254).
Read counts are not given, so values of variants with three or more changes are uncertain.

B1: LINE1-mini (parent)
chain: GGCAGAGCUCAACACAGCGUGGCAAAGUGGCUGUGGCUAGACUGCC

Variants of: B1
Assay: self-cleavage, relative activity (ratio to wild type); higher = more cleavage; in vitro, sequencing; the parent is a self-cleaving ribozyme

Variant | self-cleavage
A11C G17U G19A G40U | 0
C13U G33U G36U G44C | 0.11
C10G A14U U38A | 0.02
C15G G21A G29U U32A | 0.02
G2C G7U C31U | 0.17
G5U C18A G19U A24U G44U | 0.02
C15A G19A C23U C31G C45U | 0.01
A6U C8G C13U G27U | 0.07
C3G A12G G21C A26G | 0.03
C15A G19C U32A | 0.03
G2U G7U U32G C45U | 0.01
G2A G17C C45A | 0.3
G21U G30U C37U | 0.02
C8U A11C C18U G19C | 0
G5U U28C G36U | 0.07
G7C A26C G27A G36A | 0.04
G5C C10U A11C | 0.03
G5A C8A G30U | 0.34
G2C A6G C10A U20A A24C U34C | 0.01
C15A G44A C45U | 0.03
C3A G5U C13U A24U C37U | 0.41

Variant | self-cleavage
G1C G30C G44C C45U | 0.02
A14U G33U C42A | 0.06
G27C G29C C46A | 0.54
G19U G29C C31A A41G | 0.04
C18A U20A A26U G29A C37A | 0.03
A14G G19C C37A | 0.05
C8G U20G U32G C46A | 0.03
G19U A25C C46G | 0.29
U9A C23A A41U | 0.43
C31A A41C G44A | 0.03
A25C G33U G40C | 0.07
C3U A25U A26U G30A | 0.74
G7A C8A G44A | 0.5
G29C A39C G44A | 0.03
G5U G27U G33U G44A | 0.07
C10G C15A G35U C46A | 0.03
G1A U20A U32C | 0.11
A6U U32A A41C | 0.03
A4C G29C C46U | 0.12
G1A G19A C23A G33C A39G G44A C46G | 0.04
A6C A12C G40A | 0.03

Variant | self-cleavage
A4G A6C G7C C15G | 0.18
C15A G17A C45U | 0.02
U9A A25G C37G U43A | 0.04
C23A U28G A39C | 0.74
C3A G5U C15U G19A | 0.48
A14C A26G U32C U43C | 0.1
C3U G29C G40C | 0.15
C3G C13A C23A C31A U43A | 0.08
C15U G29C C37U C42A | 0.02
G17A G29U G36A U43G G44U C45A | 0.02
G21U U34A C37A | 0.02
G22U A25U G29A C37U | 0.04
C3U C8A A14C | 0
C8U C10G A24U | 0.04
G5U G7A A25U C31U | 0.25
U20C A25U A26U C31A | 0.08
C15A A26U C45G | 0.04
U20C G36U U38A | 0
G1A C3G A6G U34A G35C U38A | 0.17
G2C A24C G30U G35A G44U | 0
C31A G36U G44A | 0.18

Variant | self-cleavage
A6C G17C U34C C45A | 0.06
G27U U28A U38A | 0.52
A12C G17U C23G U28A U32G | 0.01
A6C A16U A41C | 0.09
A4C G21U A26C G36U C42G | 0.02
A16C G29U C46A | 0.3
C10A C18U G27U C31U G35A C37U | 0.01
U9A G36U C37G | 0
U9C C13G A14G U28A G33A | 0.03
A6C A24U U38A | 0.4
U20G G21C A39U | 0.34
G5C A6G C10A G29U | 0.03
C10A A12U A16G G17U G22U | 0.02
C3G G7A G30C G36C | 2.45
C15G C18A G30A C31A | 0.02
G2A C15A C46U | 0.24
A26G G33U U43A | 0.06
G1U A6C A12C A24G G36C A39C | 0.01
G1U G36A A41C | 0.03
G5A C8G G29U C31G A41U | 0.04
